Screen size: about 340,000 compounds; about 6,900 (2%) were called active. No stated cut-off is given here; in the data, active means inhibition above about 30%; inactive means below that, where a call was filed. This is a selection; strong and weak results do not stand in their true shares. Entries without a call were filed so in the source.

UniProt P14416, sequence (P14416 whole entry, looked up): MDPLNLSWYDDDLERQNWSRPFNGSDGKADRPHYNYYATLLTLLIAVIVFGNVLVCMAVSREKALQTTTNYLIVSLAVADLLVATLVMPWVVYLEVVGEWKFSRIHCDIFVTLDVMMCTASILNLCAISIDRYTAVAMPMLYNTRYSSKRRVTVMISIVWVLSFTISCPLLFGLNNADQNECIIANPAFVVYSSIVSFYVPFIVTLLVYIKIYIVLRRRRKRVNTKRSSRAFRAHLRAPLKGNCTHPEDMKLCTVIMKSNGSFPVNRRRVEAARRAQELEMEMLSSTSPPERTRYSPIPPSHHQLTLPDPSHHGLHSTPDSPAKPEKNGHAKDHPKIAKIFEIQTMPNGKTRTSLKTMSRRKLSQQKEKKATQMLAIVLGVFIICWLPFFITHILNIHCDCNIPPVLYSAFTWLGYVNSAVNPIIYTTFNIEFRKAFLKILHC

In this assay the target is D(2) dopamine receptor (Homo sapiens) (UniProt P14416). Put plainly: HTS Assay for Allosteric Antagonists of the Human D2 Dopamine Receptor: Primary Screen for Antagonists. Further: 0% is about no effect. To be noted: HEK293 TREx D2 cells, calcium flux, dopamine EC80; at 10 µM; stronger effect = higher value. In a few lines:
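Overnight-induced (tetracycline, 30 C) HEK293 T-REx cells carrying force-coupled D2 receive a no-wash calcium dye, then compound, then EC80 dopamine at 180 s; signals are read kinetically throughout.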
As a reminder, the inhibition is the change of the read-out against control, counted positive when it falls. As to `COc1ccc(NC(=O)c2c(NCc3cccc(OC)c3)sc3c2CCCC3)cc1`, the inhibition was determined as 14.7%.
Regarding `Cc1ccc2occ(CC(=O)N(Cc3ccc(C(C)C)cc3)C3CCS(=O)(=O)C3)c2c1` (configuration not stated), the inhibition is -14.7%.
The same measure for `O=C(CCC1N=C2c3ccccc3N=C(SCc3ccccc3F)N2C1=O)NCc1ccc(F)cc1` (configuration not stated): -12.8%; for `CC(C)(C)c1ccc(C(=O)N2CCC(c3nc4ccccc4o3)CC2)cc1`: -8.15%; for `Cc1ccc(NC(=O)Cn2c(=O)n(CCC(=O)NCc3ccccc3Cl)c(=O)c3ccccc32)cc1`: 8.64%.
The same measure for `Cc1ccc(-c2nnc3ccccc3c2C(=O)Nc2ccccc2F)cc1`: -5.25%.
The same measure for `CCOc1ccccc1C(=O)N(Cc1ccccc1F)C1CCS(=O)(=O)C1` (configuration not stated): 10.8%.
Consider `COc1cc(NC(=O)C(CCSC)NS(=O)(=O)c2ccc3c(c2)oc(=O)n3C)cc(OC)c1` (configuration not stated), for which the inhibition was -4.1%.
With `COc1ccc(Cl)cc1NC(=O)CSc1cn(CC(=O)N2CCCCCC2)c2ccccc12`, the inhibition was determined as 0.459%.
The same measure for `CCNc1nc(NC(C)(C)C)nc(Oc2ccc(=O)n(C)n2)n1`: -1.15%; for `O=C(NCCc1ccccc1)C(=O)NCC(c1ccc2c(c1)OCO2)N1CCOCC1` (configuration not stated): 9.79%.
To `COc1cc(NC(=O)CC(C)n2nc(C)cc2C)cc(OC)c1` (configuration not stated) belongs 16.6%; to `CC1CCN(S(=O)(=O)c2nnc(NC(=O)c3cccc(Br)c3)s2)CC1`, 5.64%.
The same measure for `CCS(=O)(=O)N1CCc2cc(C(=O)NCCc3ccc(OC)cc3)ccc21`: 25.1%; for `COc1ccccc1C(=O)NCC(=O)N/N=C(\C)Cc1ccccc1`: active: 30%.
As for `CCc1ccccc1NC(=O)N1CCN(C(=O)c2nsc3ccccc23)CC1`, the inhibition was found to be 9.58%.
The same measure for `CC(=O)N1CCCC1c1nc2ccccc2n1Cc1ccccc1C` (configuration not stated): -16.1%; for `CCc1ccc(NC(=O)CC2C(=O)N(c3cccc(C)c3)C(=O)N2Cc2ccco2)cc1` (configuration not stated): 1.01%.
Take `CC1CCN(S(=O)(=O)c2ccc3c(ccn3CCC(=O)NCc3ccc(N(C)C)cc3)c2)CC1`: the inhibition is 1.55%.
The same measure for `COc1cccc2cc(C(=O)NCCc3c(C)[nH]c4ccc(F)cc34)c(=O)oc12`: 13.5%; for `COc1ccc(NC(=O)CCc2c(C)nc3nc(CNC(=O)OC(C)(C)C)nn3c2C)cc1OC`: 2.08%.
The same measure for `COc1ccc(CC2C(=O)Nc3ccc(Br)cc32)cc1OC` (configuration not stated): 8.47%.
To `O=C(Nc1ccc(F)c(Cl)c1)C1CCCN(c2cnccn2)C1` (configuration not stated) belongs -3.69%.
In the case of `Cc1ccccc1CN1CCC(CNc2ncnc3onc(-c4ccc(F)cc4)c23)CC1`, the inhibition came out at 4.04%.
To `Cc1ccc([N+](=O)[O-])c(OCCN2CCNCC2)c1` belongs active: 71.5%.
The same measure for `CCOC(=O)c1c(C)c(-c2ccccc2)n(CC(=O)Nc2cc(C)ccc2OC)c1C`: -14.1%; for `COc1cc(NC(=O)NC(C)c2c(-n3cccc3)sc3c2CCCC3)cc(OC)c1OC` (configuration not stated): 20%.

These data come from PubChem BioAssay AID485344 (National Center for Advancing Translational Sciences (NCATS), 2010).
